# Results from the supplement of paper PMC7726561.
# The full ranking holds about 1,100 sequences; the median of “thermal melting temperature (Tm) of peptide-HLA complex” is about 58, and the lowest 2% start at about 42. The list shows a part of the results.
# Target: HLA-A*02:01
# Assay: thermal melting temperature (Tm) of peptide-HLA complex; higher = more thermostable pHLA complex
# Details: C1R-A*02:01
# 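Note: cell lysates heated 10 min at 37–73 °C, remaining pHLA pulled down with pan-class I antibody, peptides quantified by DIA-MS versus 37 °C, Tm where half the complex is lost.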
row,Sequence,thermal melting temperature
1,KMLSGVGGFVL,50.3 °C
2,YMIGSEVGNYL,48 °C
3,RLYQGINQL,55.9 °C
4,KIFTEDLPEV,61.5 °C
5,ALDEVFTKV,56.5 °C
6,FLANIGTSV,62.2 °C
7,VLGPKIEAV,55.5 °C
8,RLLPPGAVVAV,62.9 °C
9,ALLDGRLQV,60.7 °C
10,YLPYPIHQV,57.7 °C
11,KIVDFSYSV,61.7 °C
12,FQHTGIYSV,56.6 °C
13,KLFDTQQFL,60.1 °C
14,VLQEKVPEI,58.4 °C
15,NLDFNPPHV,50.1 °C
16,SLNGLEVHL,56.6 °C
17,IQDDMQTLYV,43.4 °C
18,TLAEIAKVEL,57.9 °C
19,FLPPEHTIVYI,56 °C

row,Sequence,thermal melting temperature
1,RLAQEGIYTL,53.4 °C
2,RLLEVPVML,58.8 °C
3,HLTDITLKV,57.8 °C
4,FLFQEPRSI,61.2 °C
5,TLFPKDVQL,57.1 °C
6,NLIPILKTV,56 °C
7,LLRDGIELV,57.8 °C
8,GLLAGDRLVEV,63.6 °C
9,ALKPDLVNV,59.1 °C
10,RLQETEGMVAV,55.6 °C
11,ALADFAELLRA,62 °C
12,FLRNINEYL,62.3 °C
13,HLLEEPIYL,63 °C
14,SLIDGYYRL,61.3 °C
15,SLDDLLTNV,54.9 °C
16,KLKPGDLVGV,44.4 °C
17,AMLTVLHEI,61.6 °C
18,FLSNDTVQL,57.4 °C
19,ALMPVLNQV,58.7 °C

row,Sequence,thermal melting temperature
1,RLIPTLVSI,47.4 °C
2,ALLKIEGVYA,59.4 °C
3,VLLDHLSLA,56.9 °C
4,LLIDDKGTIKL,60.9 °C
5,KLADDVDLEQV,57.4 °C
6,HILDFSPSL,57 °C
7,FQVDEIYTV,56 °C
8,FLAEEGFYKF,44 °C
9,TLLGNIHAV,59.5 °C
10,FMTTNVPNV,59.6 °C
11,FMDPQKMPYL,52.9 °C
12,FLPDPSALQNL,55 °C
13,KLVELPYTV,61.1 °C
14,SLIRSVVAL,60.6 °C
15,VIIKGLEEITV,47.1 °C
16,FLDITNPKA,58.3 °C
17,KLLDISELDMV,56.9 °C
18,ILDSRGNPTV,59.4 °C
